This is an account of results in the BET-seq Pho4 binding data (Le et al. 2018).

Some of the results follow. Values were computed here from the reads of four pooled replicates and scatter widely.

The test has as its target T1, Pho4 (S. cerevisiae) (UniProt P07270).
T1 sequence: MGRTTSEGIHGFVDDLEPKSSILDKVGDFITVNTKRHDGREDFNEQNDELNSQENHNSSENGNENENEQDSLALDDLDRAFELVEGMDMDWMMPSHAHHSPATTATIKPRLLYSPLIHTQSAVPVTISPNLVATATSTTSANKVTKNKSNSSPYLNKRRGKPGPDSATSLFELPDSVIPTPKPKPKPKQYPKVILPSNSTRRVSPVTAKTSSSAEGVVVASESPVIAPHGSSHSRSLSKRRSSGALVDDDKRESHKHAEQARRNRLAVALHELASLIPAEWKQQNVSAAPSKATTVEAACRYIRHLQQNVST
In words: relative binding free energy (BET-seq); higher = weaker binding. To be noted: reference: library average.
Consider TGGCACACGTGGTTTT, for which the “relative binding free energy” value turned out to be 0.01 kcal/mol.
The same measure for CATGACACGTGGTGGG: -0.08 kcal/mol; for GAATGCACGTGGTGTG: -0.11 kcal/mol; for CGTTCCACGTGGAGGT: 0.24 kcal/mol.
On to TCTATCACGTGAATTT, for which the “relative binding free energy” value worked out at 0.28 kcal/mol.
Regarding AGCAACACGTGTGGGG, the “relative binding free energy” value was 0.07 kcal/mol.
As to TTTAACACGTGCAAGT, the “relative binding free energy” value turned out to be 0.07 kcal/mol.
For GAAGTCACGTGGCGGC, the “relative binding free energy” value is 0.14 kcal/mol.
In the case of AATAGCACGTGTGCAG, the “relative binding free energy” value came to 0.03 kcal/mol.
The same measure for AAAGTCACGTGGCGTT: 0.16 kcal/mol.
With TGCGACACGTGGATGG, the “relative binding free energy” value amounted to 0.11 kcal/mol.
The same measure for TATACCACGTGTGGGA: -0.01 kcal/mol.
TGAATCACGTGGGCAT: the “relative binding free energy” value is 0.2 kcal/mol.
For TTGGGCACGTGAGGGT, the “relative binding free energy” value was found to be 0.14 kcal/mol.
In the case of ATTTTCACGTGTTAGG it was 0.15 kcal/mol; in that of AGGGTCACGTGATTAG, 0.44 kcal/mol; in that of TGTCTCACGTGGTGAA, 0 kcal/mol.
The same measure for TTTAACACGTGGGAAA: -0.05 kcal/mol; for TCGTTCACGTGAAAGT: 0.48 kcal/mol.
ATTCGCACGTGATTGA: the “relative binding free energy” value worked out at 0.23 kcal/mol.
Turning to TGTCGCACGTGTTTGT, the “relative binding free energy” value was -0.11 kcal/mol.
For the sequence ATGGACACGTGGGGAT, the “relative binding free energy” value was -0.05 kcal/mol.
In the case of TGTATCACGTGGTAGG it was 0.17 kcal/mol; in that of CTATTCACGTGGTTGA, 0.27 kcal/mol; in that of TCTGGCACGTGGGGAG, -0.23 kcal/mol.
Take TCGGTCACGTGGTTCA: the “relative binding free energy” value is 0.09 kcal/mol.
In the case of CTTCGCACGTGGGAGG it was -0.18 kcal/mol; in that of CATAGCACGTGTTTGT, -0.14 kcal/mol; in that of AAGTTCACGTGTGGAA, 0.45 kcal/mol.
Turning to TGTTTCACGTGGGGCG, the “relative binding free energy” value turned out to be 0.16 kcal/mol.
In the case of GCATTCACGTGGTATG it was 0.12 kcal/mol; in that of CTATTCACGTGTGTTA, 0.21 kcal/mol; in that of AGCGGCACGTGGATTT, 0.05 kcal/mol.
In the case of TGAGTCACGTGATTAA it was 0.18 kcal/mol; in that of CGGGACACGTGGTTCT, 0.13 kcal/mol.
As to TTGGTCACGTGACTGA, the “relative binding free energy” value was determined as 0.13 kcal/mol.
TGAATCACGTGGATGA: the “relative binding free energy” value is 0.18 kcal/mol.
GGTGTCACGTGGGTTA: the “relative binding free energy” value is -0.02 kcal/mol.
Take TTAGTCACGTGGCAAT: the “relative binding free energy” value stood at 0.03 kcal/mol.
The same measure for TTCTGCACGTGCTTGT: -0.01 kcal/mol; for TCGTTCACGTGTGTTC: 0.34 kcal/mol.
In the case of GCTGGCACGTGCGATG it was 0.13 kcal/mol.
In the case of TTTGTCACGTGTATTA it was 0.13 kcal/mol.
Regarding ATTGACACGTGGAGTT, the “relative binding free energy” value amounted to 0.09 kcal/mol.
In the case of TTATACACGTGAGAGG it was 0.35 kcal/mol; in that of GGCTGCACGTGACGGG, 0.02 kcal/mol.
Consider TTTTACACGTGCTCGG, for which the “relative binding free energy” value is -0.03 kcal/mol.
As for TTCGACACGTGCTGGG, the “relative binding free energy” value was -0.04 kcal/mol.
As to GTAAGCACGTGTCGGG, the “relative binding free energy” value was 0.03 kcal/mol.
In the case of AGGCCCACGTGGTATG it was -0.07 kcal/mol.
In the case of TTAGTCACGTGGAATT it was 0.13 kcal/mol; in that of TACGGCACGTGGGTTT, -0.19 kcal/mol; in that of AGGGTCACGTGTTTAT, 0.16 kcal/mol.
The same measure for GTTCTCACGTGTGGTC: 0.32 kcal/mol.
As for CATAGCACGTGGAAGG, the “relative binding free energy” value was 0.03 kcal/mol.
The same measure for AGGCTCACGTGAGCGG: 0.32 kcal/mol; for GTGCCCACGTGGGTTT: -0.18 kcal/mol.
In the case of CCGGGCACGTGGGGTG it was -0.24 kcal/mol.
Consider GGTTACACGTGCGAGA, for which the “relative binding free energy” value was found to be 0.24 kcal/mol.
In the case of TGGGTCACGTGCTGTC it was 0.21 kcal/mol; in that of GGTATCACGTGATGTA, 0.23 kcal/mol; in that of TAGGTCACGTGATAAA, 0.29 kcal/mol.
The same measure for TATACCACGTGGGTTT: -0.16 kcal/mol; for TTAGTCACGTGATTCA: 0.24 kcal/mol; for TCTGGCACGTGAGTTG: 0.21 kcal/mol.
With TTCTTCACGTGGTTTG, the “relative binding free energy” value is 0.08 kcal/mol.
In the case of GGTGGCACGTGTTTGC, the “relative binding free energy” value was -0.12 kcal/mol.
In the case of GGGAACACGTGGCGTT, the “relative binding free energy” value came out at 0.04 kcal/mol.
The same measure for CAGGCCACGTGGTGGA: -0.11 kcal/mol; for AATGGCACGTGAGTTC: 0.19 kcal/mol; for TGTTACACGTGGCGTA: 0.13 kcal/mol.
In the case of GATAGCACGTGATGGT it was 0.16 kcal/mol; in that of TTAGACACGTGGAGTA, -0.03 kcal/mol.
The same measure for TTTTACACGTGGGAAG: 0.11 kcal/mol; for TTTGTCACGTGCTGGG: 0.11 kcal/mol.
For the sequence ATGTCCACGTGTTATT, the “relative binding free energy” value was -0.06 kcal/mol.
In the case of ATGGTCACGTGCTAGT it was -0.04 kcal/mol; in that of GAGGACACGTGGCGTG, -0.07 kcal/mol; in that of AATGTCACGTGTTGGC, 0.17 kcal/mol.
The same measure for AGTGACACGTGATAGG: -0.07 kcal/mol; for AAAGTCACGTGTTTTG: 0.1 kcal/mol.
For the sequence GGGTACACGTGGGGCC, the “relative binding free energy” value was 0.04 kcal/mol.
Consider AGAGGCACGTGTGTGA, for which the “relative binding free energy” value was -0.1 kcal/mol.
Take ATTGGCACGTGGGTAC: the “relative binding free energy” value is -0.24 kcal/mol.
The same measure for GTTTACACGTGGGCTG: -0.05 kcal/mol; for GTGAACACGTGATGTT: 0.19 kcal/mol.
The same measure for TGGGCCACGTGTGTGT: -0.09 kcal/mol; for CTGCGCACGTGGGTTT: -0.21 kcal/mol.
For TGGTCCACGTGAGGCA, the “relative binding free energy” value came out at 0.29 kcal/mol.
The same measure for GGCGTCACGTGATTGT: 0.22 kcal/mol.
In the case of ATTGTCACGTGAACTT it was 0.29 kcal/mol.
In the case of GGATTCACGTGTACTG it was 0.36 kcal/mol; in that of AGGTCCACGTGTCGGT, -0.1 kcal/mol; in that of GGATTCACGTGGAGAA, 0.33 kcal/mol.
Take GGTCGCACGTGGATAG: the “relative binding free energy” value was -0.1 kcal/mol.
In the case of CAGGTCACGTGGTTAT it was 0.16 kcal/mol.
The same measure for ATATACACGTGGTGGC: -0.14 kcal/mol; for TTGTGCACGTGTTTGG: 0.02 kcal/mol; for TGTATCACGTGGCTTT: 0.15 kcal/mol.
In the case of TTTAACACGTGCATTG it was 0.08 kcal/mol; in that of GATGCCACGTGTGGGA, 0.12 kcal/mol; in that of GTTATCACGTGGTGAT, 0.09 kcal/mol.
On to TGTAACACGTGCAGGT, for which the “relative binding free energy” value is -0.18 kcal/mol.
As for GACGGCACGTGGTCAG, the “relative binding free energy” value stood at 0.04 kcal/mol.
The same measure for GTGTGCACGTGTCGCT: 0.05 kcal/mol.
In the case of TCTCGCACGTGAGTTT it was 0.27 kcal/mol; in that of GCAGTCACGTGGTGTA, -0.07 kcal/mol; in that of AGATGCACGTGGAGAT, -0.09 kcal/mol.
In the case of TCGGTCACGTGGGGGT it was -0.05 kcal/mol; in that of CTTGGCACGTGTGGGT, 0.02 kcal/mol; in that of AGGTACACGTGATTAG, 0.16 kcal/mol.
Consider AGTAGCACGTGTGGGA, for which the “relative binding free energy” value was -0.05 kcal/mol.
The same measure for TATAGCACGTGGGATC: -0.06 kcal/mol; for GTGTTCACGTGCGTTG: 0.22 kcal/mol.
For TTTACCACGTGTGCTT, the “relative binding free energy” value was -0.02 kcal/mol.
